# The other results are listed elsewhere or left out.
# Key:
# Test in all cases: glycan array binding signal (z-score within array); higher = stronger binding
# Details in all cases: glycan notation: IUPAC condensed, linker removed
# [1] = molecular target: Neu5Ac(a2-3)Gal6S(b1-4)GlcNAc
# In short: (§1)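 Arrays were curated from the Consortium for Functional Glycomics database, 3228 in total, and kept only where the protein sequence was available. Binding is expressed as a within-array Z-score. This score was averaged across arrays of the same protein sequence at different concentrations or buffers and across linkers, and negative values can be read as non-binding.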
# [2] = molecular target: Neu5Ac(a2-3)Gal6S(b1-4)[Fuc(a1-3)]GlcNAc
# In short: as §1
# Neu5Ac(a2-3)GalNAc = molecular target: Neu5Ac(a2-3)GalNAc
# In short: as §1
# [3] = molecular target: Neu5Ac(a2-3)GalNAc(b1-4)GlcNAc
# In short: as §1
# [4] = molecular target: Neu5Ac(a2-3)[GalNAc(b1-4)]Gal(b1-4)Glc
# In short: as §1
# [5] = molecular target: Neu5Ac(a2-3)[GalNAc(b1-4)]Gal(b1-4)GlcNAc
# In short: as §1
# [6] = molecular target: Neu5Ac(a2-3)[GalNAc(b1-4)]Gal(b1-4)GlcNAc(b1-3)GalNAc
# In short: as §1
# [7] = molecular target: Neu5Ac(a2-3)[Neu5Ac(a2-6)]GalNAc
# In short: as §1
# Neu5Ac(a2-6)Gal = molecular target: Neu5Ac(a2-6)Gal
# In short: as §1
# [8] = molecular target: Neu5Ac(a2-6)Gal(b1-3)GlcNAc(b1-3)[Gal(b1-4)GlcNAc(b1-6)]Gal(b1-4)Glc
# In short: as §1
# Neu5Ac(a2-6)Gal(b1-4)Glc = molecular target: Neu5Ac(a2-6)Gal(b1-4)Glc
# In short: as §1
# [9] = molecular target: Neu5Ac(a2-6)Gal(b1-4)GlcNAc
# In short: as §1
# [10] = molecular target: Neu5Ac(a2-6)Gal(b1-4)GlcNAc(b1-2)Man(a1-3)Man(b1-4)GlcNAc(b1-4)GlcNAc
# In short: as §1
# [11] = molecular target: Neu5Ac(a2-6)Gal(b1-4)GlcNAc(b1-2)Man(a1-3)[Gal(b1-4)GlcNAc(b1-2)Man(a1-6)]Man(b1-4)GlcNAc(b1-4)GlcNAc
# In short: as §1
# [12] = molecular target: Neu5Ac(a2-6)Gal(b1-4)GlcNAc(b1-2)Man(a1-3)[GlcNAc(b1-2)Man(a1-6)]Man(b1-4)GlcNAc(b1-4)GlcNAc
# In short: as §1
# [13] = molecular target: Neu5Ac(a2-6)Gal(b1-4)GlcNAc(b1-2)Man(a1-3)[GlcNAc(b1-2)Man(b1-4)GlcNAc(b1-2)Man(a1-6)]Man(b1-4)GlcNAc(b1-4)GlcNAc
# In short: as §1
# [14] = molecular target: Neu5Ac(a2-6)Gal(b1-4)GlcNAc(b1-2)Man(a1-3)[Man(a1-6)]Man(b1-4)GlcNAc(b1-4)GlcNAc
# In short: as §1
# [15] = molecular target: Neu5Ac(a2-6)Gal(b1-4)GlcNAc(b1-2)Man(a1-3)[Neu5Ac(a2-6)Gal(b1-4)GlcNAc(b1-2)Man(a1-6)]Man(b1-4)GlcNAc(b1-4)GlcNAc
# In short: as §1
# [16] = molecular target: Neu5Ac(a2-6)Gal(b1-4)GlcNAc(b1-2)Man(a1-3)[Neu5Ac(a2-6)Gal(b1-4)GlcNAc(b1-2)Man(a1-6)]Man(b1-4)GlcNAc(b1-4)[Fuc(a1-6)]GlcNAc
# In short: as §1
# [17] = molecular target: Neu5Ac(a2-6)Gal(b1-4)GlcNAc(b1-2)Man(a1-6)Man(b1-4)GlcNAc(b1-4)GlcNAc
# In short: as §1
# [18] = molecular target: Neu5Ac(a2-6)Gal(b1-4)GlcNAc(b1-2)Man(a1-6)[Gal(b1-4)GlcNAc(b1-2)Man(a1-3)]Man(b1-4)GlcNAc(b1-4)GlcNAc
# In short: as §1
# [19] = molecular target: Neu5Ac(a2-6)Gal(b1-4)GlcNAc(b1-2)Man(a1-6)[GlcNAc(b1-2)Man(a1-3)]Man(b1-4)GlcNAc(b1-4)GlcNAc
# In short: as §1
# [20] = molecular target: Neu5Ac(a2-6)Gal(b1-4)GlcNAc(b1-2)Man(a1-6)[Man(a1-3)]Man(b1-4)GlcNAc(b1-4)GlcNAc
# In short: as §1
# [21] = molecular target: Neu5Ac(a2-6)Gal(b1-4)GlcNAc(b1-3)Gal(b1-3)GlcNAc
# In short: as §1
# [22] = molecular target: Neu5Ac(a2-6)Gal(b1-4)GlcNAc(b1-3)Gal(b1-4)GlcNAc
# In short: as §1
# [23] = molecular target: Neu5Ac(a2-6)Gal(b1-4)GlcNAc(b1-3)Gal(b1-4)GlcNAc(b1-3)Gal(b1-4)GlcNAc
# In short: as §1
# [24] = molecular target: Neu5Ac(a2-6)Gal(b1-4)GlcNAc(b1-3)Gal(b1-4)[Fuc(a1-3)]GlcNAc(b1-3)Gal(b1-4)[Fuc(a1-3)]GlcNAc
# In short: as §1
# [25] = molecular target: Neu5Ac(a2-6)Gal(b1-4)GlcNAc(b1-3)GalNAc
# In short: as §1
# [26] = molecular target: Neu5Ac(a2-6)Gal(b1-4)GlcNAc(b1-3)[Neu5Ac(a2-6)Gal(b1-4)GlcNAc(b1-6)]GalNAc
# In short: as §1
# [27] = molecular target: Neu5Ac(a2-6)Gal(b1-4)GlcNAc(b1-6)GalNAc
# In short: as §1
# [28] = molecular target: Neu5Ac(a2-6)Gal(b1-4)GlcNAc(b1-6)[Gal(b1-3)GlcNAc(b1-3)]Gal(b1-4)Glc
# In short: as §1
# [29] = molecular target: Neu5Ac(a2-6)Gal(b1-4)GlcNAc6S
# In short: as §1
# Neu5Ac(a2-6)GalNAc = molecular target: Neu5Ac(a2-6)GalNAc
# In short: as §1
# [30] = molecular target: Neu5Ac(a2-6)GalNAc(b1-4)GlcNAc
# In short: as §1
# [31] = molecular target: Neu5Ac(a2-6)GalNAc(b1-4)GlcNAc6S
# In short: as §1
# [32] = molecular target: Neu5Ac(a2-6)GlcNAc(b1-4)GlcNAc
# In short: as §1
# [33] = molecular target: Neu5Ac(a2-6)GlcNAc(b1-4)GlcNAc(b1-4)GlcNAc
# In short: as §1
# Neu5Ac(a2-8)Neu5Ac = molecular target: Neu5Ac(a2-8)Neu5Ac
# In short: as §1
# [34] = molecular target: Neu5Ac(a2-8)Neu5Ac(a2-3)Gal(b1-3)GalNAc(b1-4)[Neu5Ac(a2-8)Neu5Ac(a2-3)]Gal(b1-4)Glc
# In short: as §1
# [35] = molecular target: Neu5Ac(a2-8)Neu5Ac(a2-3)Gal(b1-4)Glc
# In short: as §1
# [36] = molecular target: Neu5Ac(a2-8)Neu5Ac(a2-3)[Gal(b1-3)GalNAc(b1-4)]Gal(b1-4)Glc
# In short: as §1
# [37] = molecular target: Neu5Ac(a2-8)Neu5Ac(a2-3)[GalNAc(b1-4)]Gal(b1-4)Glc
# In short: as §1
# [38] = molecular target: Neu5Ac(a2-8)Neu5Ac(a2-8)Neu5Ac
# In short: as §1
# [39] = molecular target: Neu5Ac(a2-8)Neu5Ac(a2-8)Neu5Ac(a2-3)Gal(b1-4)Glc
# In short: as §1
# [40] = molecular target: Neu5Ac(a2-8)Neu5Ac(a2-8)Neu5Ac(a2-3)[GalNAc(b1-4)]Gal(b1-4)Glc
# In short: as §1
# [41] = molecular target: Neu5Ac(a2-8)Neu5Ac(a2-8)Neu5Ac(a2-8)Neu5Ac(a2-3)[GalNAc(b1-4)]Gal(b1-4)Glc
# In short: as §1
# [42] = molecular target: Neu5Ac(b2-6)Gal(b1-4)GlcNAc
# In short: as §1
# Neu5Ac(b2-6)GalNAc = molecular target: Neu5Ac(b2-6)GalNAc
# In short: as §1
# [43] = molecular target: Neu5Ac9Ac(a2-3)Gal(b1-3)GlcNAc
# In short: as §1
# [44] = molecular target: Neu5Ac9Ac(a2-3)Gal(b1-4)GlcNAc
# In short: as §1
# [45] = molecular target: Neu5Ac9Ac(a2-6)Gal(b1-4)GlcNAc
# In short: as §1
# [46] = molecular target: Neu5Gc(a2-3)Gal(b1-3)GlcNAc
# In short: as §1
# [47] = molecular target: Neu5Gc(a2-3)Gal(b1-3)[Fuc(a1-4)]GlcNAc
# In short: as §1
# Neu5Gc(a2-3)Gal(b1-4)Glc = molecular target: Neu5Gc(a2-3)Gal(b1-4)Glc
# In short: as §1
# [48] = molecular target: Neu5Gc(a2-3)Gal(b1-4)GlcNAc
# In short: as §1
# [49] = molecular target: Neu5Gc(a2-3)Gal(b1-4)[Fuc(a1-3)]GlcNAc
# In short: as §1
# [50] = molecular target: Neu5Gc(a2-6)Gal(b1-4)GlcNAc
# In short: as §1
# Neu5Gc(a2-6)GalNAc = molecular target: Neu5Gc(a2-6)GalNAc
# In short: as §1
# [51] = molecular target: Neu5Gc(b2-6)Gal(b1-4)GlcNAc
# In short: as §1
binder,measurement,setting,value
"SpnanA (Streptococcus pneumoniae), P62575 (protein) MVIEKEDVETNASNGQRVDLSSELDKLKKLENATVHMEFKPDAKAPAFYNLFSVSSATKKDEYFTMAVYNNTATLEGRGSDGKQFYNNYNDAPLKVKPGQWNSVTFTVEKPTAELPKGRVRLYVNGVLSRTSLRSGNFIKDMPDVTHVQIGATKRANNTVWGSNLQIRNLTVYNRALTPEEVQKRS",glycan array binding signal (z-score),[1],2.91
same,glycan array binding signal (z-score),[2],2.44
same,glycan array binding signal (z-score),Neu5Ac(a2-3)GalNAc,0.541
same,glycan array binding signal (z-score),[3],0.228
same,glycan array binding signal (z-score),[4],-0.132
same,glycan array binding signal (z-score),[5],-0.04
same,glycan array binding signal (z-score),[6],-0.022
same,glycan array binding signal (z-score),[7],2.61
same,glycan array binding signal (z-score),Neu5Ac(a2-6)Gal,1.59
same,glycan array binding signal (z-score),[8],-0.258
same,glycan array binding signal (z-score),Neu5Ac(a2-6)Gal(b1-4)Glc,1.79
same,glycan array binding signal (z-score),[9],0.98
same,glycan array binding signal (z-score),[10],-0.032
same,glycan array binding signal (z-score),[11],-0.145
same,glycan array binding signal (z-score),[12],-0.228
same,glycan array binding signal (z-score),[13],1.58
same,glycan array binding signal (z-score),[14],-0.062
same,glycan array binding signal (z-score),[15],0.367
same,glycan array binding signal (z-score),[16],0.457
same,glycan array binding signal (z-score),[17],-0.102
same,glycan array binding signal (z-score),[18],-0.151
same,glycan array binding signal (z-score),[19],-0.205
same,glycan array binding signal (z-score),[20],-0.037
same,glycan array binding signal (z-score),[21],-0.115
same,glycan array binding signal (z-score),[22],0.225
same,glycan array binding signal (z-score),[23],0.085
same,glycan array binding signal (z-score),[24],0.007
same,glycan array binding signal (z-score),[25],-0.184
same,glycan array binding signal (z-score),[26],-0.21
same,glycan array binding signal (z-score),[27],0.833
same,glycan array binding signal (z-score),[28],-0.327
same,glycan array binding signal (z-score),[29],0.34
same,glycan array binding signal (z-score),Neu5Ac(a2-6)GalNAc,-0.087
same,glycan array binding signal (z-score),[30],0.058
same,glycan array binding signal (z-score),[31],-0.062
same,glycan array binding signal (z-score),[32],0.335
same,glycan array binding signal (z-score),[33],0.035
same,glycan array binding signal (z-score),Neu5Ac(a2-8)Neu5Ac,0.254
same,glycan array binding signal (z-score),[34],-0.354
same,glycan array binding signal (z-score),[35],-0.083
same,glycan array binding signal (z-score),[36],-0.296
same,glycan array binding signal (z-score),[37],-0.073
same,glycan array binding signal (z-score),[38],-0.088
same,glycan array binding signal (z-score),[39],0.22
same,glycan array binding signal (z-score),[40],-0.089
same,glycan array binding signal (z-score),[41],0.144
same,glycan array binding signal (z-score),[42],-0.288
same,glycan array binding signal (z-score),Neu5Ac(b2-6)GalNAc,-0.272
same,glycan array binding signal (z-score),[43],0.222
same,glycan array binding signal (z-score),[44],-0.089
same,glycan array binding signal (z-score),[45],-0.091
same,glycan array binding signal (z-score),[46],-0.202
same,glycan array binding signal (z-score),[47],-0.188
same,glycan array binding signal (z-score),Neu5Gc(a2-3)Gal(b1-4)Glc,0.012
same,glycan array binding signal (z-score),[48],-0.279
same,glycan array binding signal (z-score),[49],0.45
same,glycan array binding signal (z-score),[50],-0.243
same,glycan array binding signal (z-score),Neu5Gc(a2-6)GalNAc,-0.279
same,glycan array binding signal (z-score),[51],-0.251
